Measured values published in US20250043016A1 (SANYOU BIOPHARMACEUTICALS, published 2025).

T1: human TNFR2 full-length protein overexpressed on huTNFR2-HEK293 / huTNFR2-Jurkat cells (human, UniProt P20333 23-461)
T1 construct: Full-length entry including the signal peptide; also called TNFRSF1B
T1 sequence: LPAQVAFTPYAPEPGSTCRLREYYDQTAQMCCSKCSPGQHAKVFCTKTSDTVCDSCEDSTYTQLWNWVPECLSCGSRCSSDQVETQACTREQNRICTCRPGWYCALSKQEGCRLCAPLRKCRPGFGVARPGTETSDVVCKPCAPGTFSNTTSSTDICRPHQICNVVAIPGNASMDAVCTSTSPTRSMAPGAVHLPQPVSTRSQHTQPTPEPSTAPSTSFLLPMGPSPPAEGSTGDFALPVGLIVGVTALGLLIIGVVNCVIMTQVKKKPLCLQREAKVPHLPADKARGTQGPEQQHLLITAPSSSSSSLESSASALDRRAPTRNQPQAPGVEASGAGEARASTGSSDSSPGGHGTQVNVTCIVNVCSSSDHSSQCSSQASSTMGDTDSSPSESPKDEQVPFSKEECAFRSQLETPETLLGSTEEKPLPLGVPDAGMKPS


How the values were obtained:
[1] = biological target: T1, human TNFR2 full-length protein …; assay: FACS on huTNFR2-HEK293 cells
Description: (§1) The obtained VHH-Fc chimeric antibody was evaluated for affinity activity. The binding activity of the VHH-Fc chimeric antibody to a TNFR2 protein on cells was detected by FACS.
To detect the binding activity of the affinity-matured molecule to a human TNFR2 antigen, FACS was used to detect the candidate affinity-matured molecules in this example. For the specific method, see example 5.

[2] = biological target: T1, human TNFR2 full-length protein …; assay: FACS on huTNFR2-HEK293 cells, PE anti-human IgG-Fc
Description: as §1
To detect the binding activity of the humanized antibody to a human TNFR2 antigen, FACS was used to detect the anti-TNFR2 VHH-Fc chimeric antibody and the corresponding humanized antibody thereof. The specific method was similar to that in example 5.

[3] = biological target: T1, human TNFR2 full-length protein …; assay: FACS on huTNFR2-HEK293 cells, PE anti-human IgG-Fc; remark: listed apart in the source
Description: as §1

[4] = biological target: recombinant cynomolgus monkey TNFR2 (SinoBiological, 90102-C08H) (cynomolgus monkey); assay: ELISA on plate-coated recombinant cynomolgus monkey TNFR2, detection with anti-human-IgG-Fc-HRP

| Binder | EC50 [1] [µg/mL] | EC50 (read off the curve) [2] [µg/mL] | EC50 [3] [µg/mL] | EC50 (read off the curve) [4] [µg/mL] |
| --- | --- | --- | --- | --- |
| humanized antibody NB92-161-hVH5 (Fc fusion) EVQLVESGGGLVQPGGSLRLSCAASGSIFSINDMGWYRQAPGKGLELVAAIGRGGGSTNYADSVKGRFTISRDNAKNTLYLQMNSLRAEDTAVYYCHAEISQLTWAFRDYWGQGTLVTVSS[human IgG1 Fc not listed] | 0.336 | ~0.5 | – | – |
| anti-TNFR2 VHH-Fc chimeric antibody NB92-161 (Fc fusion, C-terminus of VHH ligated to N-terminus of human IgG1 Fc fragment; also called parent molecule) EVQLVESGGGLVQPGGSLRLSCAASGSIFSINDMGWYRQAPGKQRELVAAIGRGGGSTNYADSVKGRFTISRDNAKNTVYLQMNSLKPEDTAVYYCHAEISQLTWAFRDYWGQGTQVTVSS[human IgG1 Fc not listed] | – | ~0.5 | 0.513 | 0.2 |
| anti-TNFR2 affinity-matured molecule 161-hVH5-48 (Fc fusion) EVQLVESGGGLVQPGGSLRLSCAASGSIRFINDMGWYRQAPGKGLELVAAIGRGGGSTNYADSVKGRFTISRDNAKNTLYLQMNSLRAEDTAVYYCHAEISQLGYAFRDYWGQGTLVTVSS[human IgG1 Fc not listed] | 0.0664 | – | – | – |
| humanized antibody NB92-161-hVH4 (Fc fusion) EVQLVESGGGLVQPGGSLRLSCAASGSIFSINDMGWYRQAPGKQRELVAAIGRGGGSTNYADSVKGRFTISRDNAKNTLYLQMNSLRAEDTAVYYCHAEISQLTWAFRDYWGQGTLVTVSS[human IgG1 Fc not listed] | – | ~0.6 | – | – |
